Experimental data: PubChem BioAssay AID686979 (National Center for Advancing Translational Sciences (NCATS), 2013)
Several values for one entry are separate records, joined by “and”; a condition that tells them apart may be missing. Equal entries are not always repeated. About 50,000 (12%) of roughly 420,000 compounds were called active. Inconclusive means that the source gave no clear call. Such entries were picked first, then a sample of the others. The call rests on the fitted dose curve; in most records, active means well fitted inhibition curve with a large enough effect; inconclusive means small, poorly fitted or top-dose-only effect; inactive means flat fitted curve, though single readings scatter. Where the call is inconclusive, the potency comes from a doubtful curve fit.

Experiment: qHTS for Inhibitors of human tyrosyl-DNA phosphodiesterase 1 (TDP1): qHTS in cells in presence of CPT; further: nearly all actives have a fitted effect of over 55% in size
Details: chicken DT40 Tdp1-/-;hTDP1 cells + 20 nM CPT, ATP luminescence, 48 h; activity change, negative = growth inhibition: at 46.2 µM (top of the series)
Summary of the method: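 Chicken DT40 Tdp1-/- cells complemented with human TDP1, 400 cells/well, exposed to compounds plus 20 nM camptothecin for at least 48 h at 37 C; viability read as ATP content by CellTiter-Glo luminescence.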
On the % scale 0 is the no-effect control and ±100 the full control effect; potency means the concentration at half of the fitted maximal effect; tags describe the fitted curve by direction and shape.

Row | SMILES | Potency | activity change, negative = growth inhibition
1 | COc1cc(OC)cc(-c2cc(N)n(S(=O)(=O)c3cccc4nsnc34)n2)c1 | inconclusive: 23.1 µM [inhibitor, single point] | –
2 | COc1cccc(NC(=O)CN(C)C(=O)CN2C(=O)NC(C)(c3ccc(C)cc3)C2=O)c1 (centres undefined) | inconclusive: 23.1 µM [inhibitor, single point] | –
3 | COc1ccc(Cl)cc1NC(=O)C1CCCN(S(C)(=O)=O)C1 (centres undefined) | inactive | –
4 | CSCCC(NC(=O)c1ccc(Cl)cc1Cl)C(=O)N(C)Cc1nc2ccccc2c(=O)[nH]1 (centres undefined) | inconclusive: 0.461 µM [inhibitor, full curve, poor fit] | –
5 | C/C=C/c1ccc(OCCOc2ccc(C=O)cc2OC)c(OC)c1 | inconclusive: 16.4 µM [inhibitor, partial curve] | –
6 | COc1ccc(Cl)cc1S(=O)(=O)N1CCN(CC(=O)Nc2ccccc2C(F)(F)F)CC1 | inconclusive: 20.6 µM [inhibitor, single point] | –
7 | O=C1NC(Cc2c[nH]c3ccccc23)C(=O)N1CCOc1ccccc1 (centres undefined) | inactive | –
8 | COc1ccc(-c2noc(N3CCC(C(=O)NCCCN4CCCC(C)C4)CC3)n2)cc1 (centres undefined) | inconclusive: 29.1 µM [inhibitor, single point] | –
9 | COCCNCc1nc2sc(C)c(-c3ccccc3)c2c(=O)[nH]1 | inconclusive: 20.6 µM [inhibitor, single point] | –
10 | COc1ccc(-c2cc(-c3c(O)c(OC)c4occc4c3OC)[nH]n2)cc1OC | inconclusive: 25.9 µM [inhibitor, single point] | –
11 | CCn1c(C)c(CS(=O)(=O)c2ccccc2)[nH]c1=O | active: 4.11 µM | –
12 | COc1ccccc1-n1c(CNC(=O)c2cccs2)n[nH]c1=S | inactive | –
13 | CN(C)c1cccc(C(=O)NCc2ccc(Cl)cc2)c1 | inactive | –
14 | COc1cccc(NC(=O)Cn2c(=O)ccc3cc(S(=O)(=O)N4CCC(C)CC4)ccc32)c1 | active: 18.4 µM | –
15 | C/C(=N\Nc1nc(C)cc(-c2ccccc2)n1)c1ccccc1 | inconclusive: 29.1 µM [inhibitor, single point] | –
16 | Cn1nc(C(=O)NNC(=O)c2cccc(Cl)c2)ccc1=O | inactive | –
17 | c1ccc(-c2noc(-c3ccco3)n2)nc1 | inconclusive: 23.1 µM [inhibitor, partial curve] | –
18 | CCOC(=O)c1c(C)c(C(=O)NCc2ccco2)c(C)n1Cc1ccccc1 | inconclusive: 13 µM [inhibitor, partial curve] | –
19 | O=C(NCC1CCCO1)c1ccc2c(c1)N(Cc1ccc(F)cc1Cl)C(=O)CS2 (centres undefined) | inconclusive: 29.1 µM [inhibitor, single point] | –
20 | Cn1c(=O)[nH]c(=O)c2c1nc1n2CCN1Cc1ccccc1 | – | inconclusive: -32.2% [inhibitor]
21 | CCOc1cc(C2c3c(oc4cc(C)c(Cl)cc4c3=O)C(=O)N2Cc2ccco2)ccc1O (centres undefined) | active: 18.4 µM | –
22 | Clc1ccc(N=NN2CCOCC2)cc1 | inactive | –
23 | CCOC(=O)N/N=C/c1ccc(C)o1 | inactive | –

Row | SMILES | Potency | activity change, negative = growth inhibition
24 | COc1ccc(-c2nc3ccccc3n2Cc2ccc(C)cc2)cc1 | active: 16.4 µM | –
25 | COc1ccc(NC(=O)c2cc3nc(-c4ccccc4)cc(C)n3n2)cc1OC | inconclusive: 23.1 µM [inhibitor, single point] | –
26 | CCCCC[C@H](O)CC(=O)CCc1ccc(O)c(OC)c1 | inconclusive: 29.1 µM [inhibitor, single point] and inconclusive: 50.1 µM [inhibitor, single point] | –
27 | COc1cc2c(cc1OC)C(c1c[nH]c3ccccc13)NCC2 (centres undefined) | inconclusive: 6.51 µM [inhibitor, single point] | –
28 | CCn1c2ccccc2c2cc(NC(=O)c3cc(C)on3)ccc21 | inconclusive: 29.1 µM [inhibitor, single point] | –
29 | C=CCOc1c(Br)cc(CNc2ccc3[nH]c(=O)[nH]c3c2)cc1OCC | inconclusive: 25.9 µM [inhibitor, single point] | –
30 | COc1cc2c(cc1OC)C(COc1ccc(F)cc1)NCC2 (centres undefined) | inconclusive: 29.1 µM [inhibitor, partial curve, poor fit] | –
31 | Cn1nccc1C(=O)Nc1ccn(C23CC4CC(CC(C4)C2)C3)n1 | active: 20.6 µM | –
32 | Cc1ccc(N=Cc2cc(C)n(C3CCCC3)c2C)cc1 | – | inconclusive: -32.1% [inhibitor]
33 | CCc1ccccc1NC(=O)CN1CCN(C(=O)c2cc(C3CC3)nn2-c2ccccc2)CC1 | inconclusive: 16.4 µM [inhibitor, partial curve, poor fit] | –
34 | COc1ccc(Cn2cc(C(=O)c3ccc(F)cc3)c(=O)c3cc4c(cc32)OCCO4)cc1 | inconclusive: 18.4 µM [inhibitor, single point] | –
35 | O=C(Nc1ccc(Cl)c(Cl)c1)c1ccc(Cn2cc(Cl)cn2)cc1 | inconclusive: 18.4 µM [inhibitor, single point] | –
36 | Cc1cc(-n2c(C)cc(C(=O)CSc3nc4ccccc4c(=O)n3Cc3ccco3)c2C)no1 | active: 23.1 µM | –
37 | CCOc1cc(/C=N/NC(=O)CSc2nncn2C)ccc1OCc1cccc(C)c1 | inconclusive: 25.9 µM [inhibitor, single point] | –
38 | CC(=O)Nc1nonc1-c1nnc(SCC(=O)Nc2cccc(C)c2C)n1-c1ccccc1 | active: 23.1 µM | –
39 | O=C(N/N=C/c1ccc2c(c1)OCO2)c1cccc2ccccc12 | active: 2.06 µM | –
40 | CCCCc1nn2c(=O)cc(COC(=O)c3ccco3)nc2s1 | inactive | –
41 | CCOC(=O)c1ccc(NC(=O)CN(c2ccc(C)cc2)S(=O)(=O)c2c(C)n[nH]c2C)cc1 | inconclusive: 29.1 µM [inhibitor, single point] | –
42 | Cc1ccc(C(O)c2ncc(-c3cccc(F)c3)[nH]2)cc1 (centres undefined) | inconclusive: 20.6 µM [inhibitor, partial curve, poor fit] | –
43 | Fc1ccc(-n2nnc(-c3ccnc4ccccc34)n2)cc1 | inactive | –
44 | CCOc1cc(C(=O)NCCCn2ccnc2)cc(OCC)c1OCC | inactive | –
45 | CCCCCCCCC(=O)NNC(=O)c1c(O)c2ccccc2n(CCC)c1=O | active: 23.1 µM | –
46 | O=C(C[n+]1ccccc1Br)c1ccc(-c2ccccc2)cc1 | inconclusive: 11.2 µM [inhibitor, partial curve] | –

Row | SMILES | Potency | activity change, negative = growth inhibition
47 | CC1CCN(C(=O)Cn2cc(SCC(=O)Nc3ccccc3C(F)(F)F)c3ccccc32)CC1 | inconclusive: 20.6 µM [inhibitor, single point] | –
48 | CCCc1nc(S(=O)(=O)Cc2ccc(Cl)cc2Cl)n[nH]1 | inactive | –
49 | CCCN1CNc2c(c(=O)[nH]c(=S)n2CCc2ccc(C)cc2C)C1 | inconclusive: 22.4 µM [inhibitor, single point] | –
50 | COc1ccc(-c2nc(CCNC(=O)c3c(F)cccc3Cl)cs2)cc1 | inconclusive: 18.4 µM [inhibitor, single point] | –
51 | CCN(CC)C(=O)CSc1nc(C)cc(C)n1 | inactive | –
52 | COc1ccc(OC)c(NC(=O)COC(=O)CCS(=O)(=O)c2ccc(Cl)cc2)c1 | inconclusive: 29.1 µM [inhibitor, single point] | –
53 | O=C(NCC1CCCO1)c1cn(Cc2ccccc2)nc1-c1ccccc1 (centres undefined) | inactive | –
54 | O=C(C[n+]1ccccc1)N/N=C/c1cccc(Cl)c1Cl | inconclusive: 23.1 µM [inhibitor, single point] | –
55 | Cc1cccc(NC(=O)C2CCCN(S(=O)(=O)c3c(C)n[nH]c3C)C2)c1 (centres undefined) | inactive | –
56 | CCC(C(=O)Nc1ccccc1)n1nc(-c2cc(C)ccc2C)ccc1=O (centres undefined) | inconclusive: 25.9 µM [inhibitor, single point] | –
57 | Cc1ccc(C)c(Cn2c3ccccc3c3cnn(CC(=O)NCc4ccccn4)c(=O)c32)c1 | inconclusive: 13 µM [inhibitor, partial curve, poor fit] | –
58 | COC(=O)c1ccc(NC(=O)c2c(Br)cnn2C)cc1 | inconclusive: 23.1 µM [inhibitor, single point] | –
59 | CCCc1cc(=O)[nH]c(Nc2ccc(OC)c(Cl)c2)n1 | – | inconclusive: -34% [inhibitor]
60 | CCOC(=O)CCCCCC(=O)Nc1ccc2c(c1)CC(=O)N([C@@H](C)CO)C[C@H](C)[C@@H](CN(C)C(=O)Nc1ccc3c(c1)OCO3)O2 | inactive | –
61 | COc1ccc(-n2nnc3c(SC(C(C)=O)C(=O)N(C)C)ncnc32)cc1 (centres undefined) | active: 18.4 µM | –
62 | CCOc1ccc(-n2c(=O)c3c(C)c(C)sc3n(CC(=O)Nc3ccc(CC)cc3)c2=O)cc1 | inconclusive: 16.4 µM [inhibitor, single point] | –
63 | O=C1C(Cc2ccccc2)Nc2ncnc(N3CCN(c4ccccc4)CC3)c2N1Cc1ccccc1 (centres undefined) | inconclusive: 29.1 µM [inhibitor, single point] | –
64 | Cc1cc(Br)ccc1NC(=O)CN(C)C(=O)CNC(=O)Cc1ccccc1 | inconclusive: 29.1 µM [inhibitor, single point] | –
65 | Cc1ccccc1Nc1c(-c2cccnc2)nc2cccc(C)n12 | inconclusive: 16.4 µM [inhibitor, single point] and inconclusive: 29.1 µM [inhibitor, single point] | –
66 | Cc1ccccc1NC(=O)CSCc1nc(N)nc(Nc2ccccc2C)n1 | inactive | –
67 | COc1ccc(C(=O)NC(=S)NNC(=O)c2ccncc2)cc1Br | inconclusive: 18.4 µM [inhibitor, single point] | –
68 | COc1ccc(NC(=O)C(c2ccncc2)n2c(=O)c(-c3cc4ccccc4[nH]3)nc3ccccc32)cc1 (centres undefined) | inconclusive: 20.6 µM [inhibitor, single point] | –
69 | Cc1csc(NC(=O)C2(C)CCN2C(=O)C(C)C)c1C#N (centres undefined) | active: 8.2 µM | –
